# In PubChem BioAssay AID624296 (National Center for Advancing Translational Sciences (NCATS), 2012):
# The whole screen tested about 350,000 compounds, of which about 9,900 (2.8%) were called active. This list was built around the results that the source calls inconclusive (neither active nor inactive); the mix of calls is not that of the screen. Calls come from the whole dose curve; as a rule, active = well fitted activation curve with a large enough effect; inconclusive = small, poorly fitted or top-dose-only effect; inactive = no such curve, though single readings can be large or run the other way. Potencies of inconclusive entries are left out as doubtful fits.
# Assay: A quantitative high throughput screen for small molecules that induce DNA re-replication in MCF 10a normal breast cells. For activity, positive = re-replication: % of control where 0% means no effect. Note: nearly all actives have a fitted effect of over 50% in size.
# Details: MCF 10A DNA re-replication, Hoechst nuclear intensity, 48 h; activity, positive = re-replication: at 46.1 µM (top of the series)
# Potency is the fitted concentration of half-maximal effect; tags give direction and shape of the fitted curve.
SMILES,Potency,"activity, positive = re-replication"
COc1cc(/C=N/OCC(=O)NC2CCCCC2C)ccc1OCc1ccc(Cl)cc1 (stereo unspecified),active: 16.4 µM,
O=C(O)Cc1cccc2ccccc12,inactive,
CCO[C@@H]1OC(C(=O)N2CCN(Cc3ccc4c(c3)OCO4)CC2)=C[C@H](c2ccc(Br)cc2)[C@H]1CCCO,"inconclusive [activator, partial curve, poor fit]",
Cc1cccc(C(=O)c2cnc3ccccc3c2-c2ccccc2)c1,active: 23.1 µM,
CCOC(=O)C1CCN(C(c2cc3ccc(C)c(C)c3[nH]c2=O)c2nnnn2C2CCCCC2)CC1 (stereo unspecified),,inactive: 12.6%
COC(=O)c1cc(OC)c(OC)cc1NC(=O)CN1CCCCC1,,inactive: 16.4%
COC(=O)C[C@H](NC(=O)Cn1cc(C)c(=O)[nH]c1=O)C(=O)OC,,inactive: -14.2%
CCC(C)N(C(=O)C(F)(F)F)C(C(=O)NC1CCCCC1)c1ccncc1 (stereo unspecified),"inconclusive [activator, partial curve, poor fit]",
CCCCNC(=S)N1CCN(C(c2ccccc2)c2ccccc2)CC1,"inconclusive [activator, partial curve]",
CCCCCCSc1ccc([C@@H]2[C@H]3C(=O)N(C)C(=O)[C@H]3[C@]3(C(=O)OC)CCCCN23)cc1,"inconclusive [activator, partial curve, poor fit]",
Cc1ccc(C2(C)NC(=O)N(CC(=O)N3CCN(C(=O)c4cccs4)CC3)C2=O)cc1 (stereo unspecified),,inactive: 25.9%
CCc1cc(=O)n2c([nH]c3ccccc32)c1C#N,"inconclusive [activator, partial curve, poor fit]",
CCCNC(C)(C)COC(=O)c1ccccc1,"inconclusive [activator, full curve, poor fit]",
Cc1[nH]n(-c2ccccc2)c(=O)c1C=NC1CCCCCC1,"inconclusive [activator, single point]",
CCCN(CCC)c1nc(NC2CCN(C(=O)OCC)CC2)nc(OC)n1,,inactive: 15.4%
Cc1cc2cc(CN(Cc3ccc4c(c3)OCO4)C(=O)c3ccco3)c(=O)[nH]c2cc1C,"inconclusive [activator, single point]",
CC1=C(C(=O)N2CCCC(N3CCN(c4ccccc4F)CC3)C2)OCCO1 (stereo unspecified),,inactive: -1.22%
Cc1ccc(C)c(N2CCN(C(=O)Cc3cn(C)c4ccccc34)CC2)c1,"inconclusive [activator, single point]",
COc1cccc(OC)c1C(=O)NC(=S)Nc1ccc2oc(-c3ccncc3)nc2c1,,inactive: 28.1%
CN(C)c1ccc(C(=O)NNC(=O)c2ccc(Cl)cc2)cc1,,inactive: -2.36%
Cc1cc(Cl)c(OCCN2C(=O)NC(C)(C)C2=O)c(Br)c1,,inactive: 0.64%
CCN(CC)c1ccc(N=C2C=CC(=O)C=C2NC(C)=O)cc1,,inactive: 16.5%
Cc1cc2c(C)cc(=O)oc2c2c1NCCC2,active: 12.6 µM,

SMILES,Potency,"activity, positive = re-replication"
O=S(=O)(NCc1ccco1)c1cccc(S(=O)(=O)N2CCCCC2)c1,"inconclusive [activator, single point]",
Cc1onc(-c2ccccc2)c1C(=O)NNC(=S)NC(=O)c1ccc(Br)cc1,"inconclusive [activator, partial curve]",
CCOc1ccccc1N1CCN(C(=S)Nc2ccc(S(N)(=O)=O)cc2)CC1,"inconclusive [activator, partial curve, poor fit]",
COc1ccccc1/C=C(/CC(=O)NCc1ccccc1)c1nc2ccccc2s1,"inconclusive [activator, partial curve]",
CCc1cccc(N=c2c([N+](=O)[O-])nn(-c3ccc4c(c3)OCCO4)n2O)c1,,inactive: 0%
CCOc1cc(C)c(Cl)cc1S(=O)(=O)NCc1ccc2c(c1)OCO2,"inconclusive [activator, single point]",
Cc1cc(C)c2ccc(N)nc2c1O,"inconclusive [activator, partial curve, poor fit]",
NC(=O)[C@H]1CC2(CC(c3cccc(NC(=O)COc4ccc(Cl)cc4)c3)=NO2)CN1C(=O)c1ccc(Cl)cc1 (stereo partly specified),"inconclusive [activator, single point]",
NC(=O)Nc1ccc(C(=O)OCC(=O)N2CCCC2=O)cc1,,inactive: 3.58%
O=C(Nc1ccccc1N1CCOCC1)c1ccc([N+](=O)[O-])s1,"inconclusive [activator, single point]",
COC(=O)C1=NN(C(=O)c2cccc(Br)c2)C(O)(c2ccc(Cl)cc2)C1 (stereo unspecified),,inactive: 6.94%
O=C(COC(=O)COc1ccc(Br)cc1)NCc1ccccc1,,inactive: -1%
COc1cccc(C(=O)COc2cccc(NC(=O)c3cccc([N+](=O)[O-])c3)c2)c1,"inconclusive [activator, partial curve]",
CN(CC(=O)Nc1cccc(C(F)(F)F)c1)Cc1ccccc1,,inactive: 13.6%
CCC(=O)Nc1ccc(C=C(C(C)=O)C(C)=O)cc1,active: 16.4 µM,
O=C(CN(c1ccccc1)S(=O)(=O)c1ccccc1[N+](=O)[O-])N1CCCC1,,inconclusive: -37.6% [activator]
CCN(CC)c1nc(Oc2ccc(C(=O)OC)cc2)nc(N2CCOCC2)n1,"inconclusive [activator, single point]",
CC(C)NC(=O)C(=O)NNC(=O)CCc1ccccc1,"inconclusive [activator, single point]",
CC1=CCC[C@@H]2[C@@](C)(CC/C(C)=C/C(=O)O)[C@H](C)CC[C@@]12C,"inconclusive [activator, partial curve, poor fit]",
CCOc1cc(C(=S)N2CCCCC2)ccc1OS(=O)(=O)c1ccc(Br)cc1,"inconclusive [activator, partial curve, poor fit]",
CCCN(CCC)C(=O)CCSCCC(=O)N(CCC)CCC,,inactive: 0.705%
CC(C)CN1CCN=C1N(C)C,"inconclusive [activator, full curve]",
Cc1ccc(N(CC(O)CN2CCCCC2)S(=O)(=O)c2ccc(C)cc2)cc1 (stereo unspecified),"inconclusive [activator, single point]",
